In article PMC4336329 (PLoS ONE, 2015):
About 14,000 (4.5%) of roughly 310,000 compounds showed an effect of 50% or more. The effect is printed as a negative number. The list shows a part of the results.

Each compound was assayed against human ether-à-go-go-related gene (hERG) potassium channel (human, UniProt Q12809) (assay: primary screen, population patch clamp on CHO cells stably expressing hERG).
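Also: peak tail current of the secondary pulse compared with the same well before compound.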

human ether-à-go-go-related gene (hERG) potassium channel, sequence (Q12809 whole entry, looked up): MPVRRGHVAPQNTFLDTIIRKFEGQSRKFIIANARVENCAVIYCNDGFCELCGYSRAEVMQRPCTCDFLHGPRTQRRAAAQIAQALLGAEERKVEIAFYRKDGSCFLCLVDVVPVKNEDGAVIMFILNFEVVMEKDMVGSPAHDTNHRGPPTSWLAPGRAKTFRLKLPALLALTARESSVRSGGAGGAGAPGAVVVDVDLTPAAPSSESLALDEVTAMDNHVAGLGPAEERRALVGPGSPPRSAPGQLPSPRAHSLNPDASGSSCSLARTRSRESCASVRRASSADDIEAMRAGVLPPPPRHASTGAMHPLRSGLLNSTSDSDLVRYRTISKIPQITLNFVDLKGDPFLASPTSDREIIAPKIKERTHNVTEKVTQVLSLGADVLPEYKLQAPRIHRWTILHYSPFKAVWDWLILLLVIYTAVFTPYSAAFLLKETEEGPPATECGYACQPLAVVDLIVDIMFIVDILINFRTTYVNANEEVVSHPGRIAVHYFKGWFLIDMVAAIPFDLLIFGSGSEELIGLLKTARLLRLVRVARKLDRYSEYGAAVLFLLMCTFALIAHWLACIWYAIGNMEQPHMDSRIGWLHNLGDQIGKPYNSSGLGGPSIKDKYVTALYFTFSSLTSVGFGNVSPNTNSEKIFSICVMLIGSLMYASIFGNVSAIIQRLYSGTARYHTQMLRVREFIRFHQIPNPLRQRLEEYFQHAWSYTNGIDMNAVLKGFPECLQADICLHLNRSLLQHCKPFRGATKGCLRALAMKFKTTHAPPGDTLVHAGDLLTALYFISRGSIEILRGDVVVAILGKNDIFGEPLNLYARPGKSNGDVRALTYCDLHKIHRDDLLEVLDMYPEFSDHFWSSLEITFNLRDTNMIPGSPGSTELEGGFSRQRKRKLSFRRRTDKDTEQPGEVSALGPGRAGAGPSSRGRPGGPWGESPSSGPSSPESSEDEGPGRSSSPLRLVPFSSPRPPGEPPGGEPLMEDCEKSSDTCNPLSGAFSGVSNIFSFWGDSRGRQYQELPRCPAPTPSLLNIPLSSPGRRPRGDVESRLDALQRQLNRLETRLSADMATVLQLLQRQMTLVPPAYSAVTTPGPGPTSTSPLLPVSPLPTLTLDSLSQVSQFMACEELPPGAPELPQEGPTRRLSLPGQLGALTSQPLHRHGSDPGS

Row | Compound | hERG current change (%, negative = inhibition) at 10uM [%]
1 | Cc1ccc2[nH]c(=O)c(CN(CCO)Cc3nnnn3CCc3ccccc3)cc2c1 | -26.2
2 | NC(=O)CC(NC(=O)c1cccc(Br)c1)c1ccc(N2CCCCCC2)c([N+](=O)[O-])c1 (stereo not drawn) | -14.1
3 | COc1ccc(-c2cc(-n3c(C(F)(F)F)nc4ccccc43)n(CCC#N)n2)cc1 | 13.2
4 | CCCC(C)C1C(C#N)=C(N)Oc2c1c(=O)oc1ccccc21 (stereo not drawn) | -2.94
5 | O=C(CCNC(=O)c1ccc(Br)cc1)NC1CCCc2ccccc21 (stereo not drawn) | -11.3
6 | COC(=O)c1c(-c2ccccc2)nn(-c2ccccc2)c1C(=O)OC | 13.6
7 | COc1ccc(C2/C(=C(\O)c3ccc4c(c3)OCCO4)C(=O)C(=O)N2CCCN(C)C)cc1 (stereo not drawn) | 17
8 | Cc1ccc2c(c1)C(c1ccc(O)cc1)(c1ccc(O)cc1)C(=O)N2C | 4.27
9 | COCCN1CCn2c(nc3cc(NC(=O)c4ccc(OC)cc4)ccc32)C1 | -13.8
10 | NS(=O)(=O)c1cccc(NC(=O)C2CC(=O)N(Cc3ccco3)C2)c1 (stereo not drawn) | 11.8
11 | O=C1C(=O)c2c(C(=O)c3ccccc3)coc2-c2ccccc21 | -27.3
12 | Cn1nc(C(F)(F)F)c(/C=N/OC(=O)c2ccc(Cl)cc2)c1Cl | 14.4
13 | CCCc1[nH]n(-c2ccc([N+](=O)[O-])cc2)c(=O)c1C=NCCN1CCNCC1 | -47.1
14 | O=C(CSc1nc2ccccc2s1)c1ccc(O)cc1O | 13.4
15 | O=C(CN1CCN(S(=O)(=O)c2ccc(Cl)cc2)CC1)NCc1cccs1 | -59.1
16 | CCCCNC(=O)CCn1c(=O)c2ccccc2n(CC(=O)NCCc2ccc(OC)c(OC)c2)c1=O | -11.3
17 | Cc1cc(-c2nc3cccnc3s2)ccc1NS(=O)(=O)c1cccs1 | 5.53
18 | CCCCOc1ccc(NC(=O)Cn2c(=O)ccc3c(C)cc(C)nc32)cc1 | 9.08
19 | Cc1ccc(S(=O)(=O)N2CC(C(=O)O)Oc3ccccc32)cc1 (stereo not drawn) | 9.17
20 | COc1ccccc1NC(=O)c1ccc(S(=O)(=O)N2CCCC2)cc1 | -20.3
21 | COc1ccc(NC(=S)NCc2cccn2C)cc1 | 3.27
22 | Cc1ccc(C(=O)N/C(=C\c2ccccc2)C(=O)OCc2ccccc2)cc1 | -50.7

Row | Compound | hERG current change (%, negative = inhibition) at 10uM [%]
23 | Cc1cc(C(=O)Nc2ccc(C(=O)O)cc2)c(C)o1 | 23.9
24 | CC(C#Cc1c([C@@H](C)Oc2ccccc2)nnn1Cc1ccccc1)Oc1ccccc1 (stereo partly drawn) | 6.98
25 | Cc1nc2ccccc2nc1OCc1cccc(Cl)c1 | -12
26 | CCn1c(SCC(=O)NCc2cccs2)nnc1-c1ccco1 | 7.51
27 | Cc1c(Cl)cccc1NC(=O)CS(=O)(=O)c1ccccc1 | 13.6
28 | COc1ccc2nc(SCC(=O)Nc3ccc4c(c3)OCCO4)[nH]c2c1 | -19.5
29 | CCO[C@H]1OC(C(=O)N2CCN(Cc3ccc4c(c3)OCO4)CC2)=C[C@@H](c2ccc(Br)cc2)[C@@H]1CCCO | -20.1
30 | O=C(NCCC1CCCCN1S(=O)(=O)c1ccc(F)cc1)C(=O)NC1CCCC1 (stereo not drawn) | -49.7
31 | O=C(c1ccc2c(c1)OCO2)C1CCCN(C(=O)NCc2ccccc2)C1 (stereo not drawn) | -14.3
32 | CCc1ccccc1NC(=O)c1ccc([N+](=O)[O-])s1 | -8.62
33 | COc1ccc(-c2[nH]ncc2CNCc2cc(C)n(C)n2)c(F)c1 | 10.9
34 | CC1(C)NC(=O)N(CC(O)CN2C(=O)CCC2=O)C1=O (stereo not drawn) | -7.16
35 | O=C(C(=O)N1CCN(Cc2ccc3c(c2)OCO3)CC1)c1c[nH]c2ccccc12 | -11.6
36 | CC(C)(C)c1cc(CCC(=O)NCc2cccnc2)cc(C(C)(C)C)c1O | -1.67
37 | CS(=O)(=O)N(CC(=O)NC1CCCCCC1)Cc1ccc(Cl)cc1 | 0.169
38 | S=c1nc(Cc2ccc(Cl)cc2)[nH]c2ccccc12 | 25.6
39 | C/C(N)=C(/C#N)C(=O)CSc1nc2cc(Cl)ccc2c(=O)n1-c1ccc(C)cc1 | 18.1
40 | Clc1ccccc1CNc1ncnc2nc[nH]c12 | 0.586
41 | O=C(CCS(=O)(=O)c1ccccc1)NC1CCCCC1 | 28
42 | Cn1c(O)c(/C=N/N2CCOCC2)c(=O)[nH]c1=S | 18.1
43 | CCC1Oc2ccc(C)cc2N(CC(=O)N(Cc2cccnc2)Cc2cccc(F)c2)C1=O (stereo not drawn) | 4.55
44 | On1cnnc1-c1ccccc1 | 8.89

Row | Compound | hERG current change (%, negative = inhibition) at 10uM [%]
45 | COc1ccc(C)cc1N(C(=O)c1ccco1)C(C(=O)NC1CCCC1)c1cc(OC)c(OC)c(OC)c1 (stereo not drawn) | 1.92
46 | COc1ccccc1OCCSc1nc2ccccc2n1CCO | 12.3
47 | CCOc1ccc(N2CC(C(=O)Nc3cccc(C)c3C)CC2=O)cc1 (stereo not drawn) | 5.18
48 | Cc1ccc(S(=O)(=O)N2CCC(C(=O)OCC(=O)N3CCc4ccccc43)CC2)cc1 | -25.4
49 | CCCCn1c(/N=C/c2ccccc2NS(=O)(=O)c2ccc(C)cc2)nc2ccccc21 | -19
50 | COC(=O)C1=C(c2c(C)noc2C)C[C@@H]2CC[C@H]1N2C(=O)NCc1ccc2c(c1)OCO2 | -13.8
51 | COC(=O)c1cccc(C(=O)N2CCC(CCC(=O)NCc3ccc(F)cc3)CC2)c1 | -30.6
52 | COc1ccc(CCNC(=O)C2CCN(S(=O)(=O)c3cnc[nH]3)CC2)cc1OC | 13.7
53 | Cc1cc(/C=N/O)c(C)n1-c1cccc(Cl)c1 | -7.5
54 | CC(C)C(=O)N1CCN(c2ccc(NC(=O)COc3ccccc3[N+](=O)[O-])cc2)CC1 | 2.38
55 | COc1ccc2c(c1)OC(O)(C(F)(F)C(F)F)CC2=O (stereo not drawn) | -6.12
56 | COc1ccc(-c2nc3ccc(N4CCCC4)cc3c(=O)[nH]2)cc1OC | 8.32
57 | COc1ccc(NC(=O)Nc2nnc(-c3ccccc3F)s2)cc1 | 31.2
58 | O=C(O)c1cccc(-c2noc(-c3cccc(Cl)c3)n2)c1 | 13.1
59 | S=C(NCCc1c[nH]c2ccccc12)NC1CC1 | 24.6
60 | Cc1[nH]c2c([N+](=O)[O-])cccc2c1C | -7.54
61 | Cc1ccc(OCC(=O)Nc2ccc3oc(=O)ccc3c2)cc1C | 11.1
62 | COc1ccc(CN2C(=O)c3ccccc3C2=O)cc1 | 9.28
63 | CCCc1cc(N2CCOCC2)n2nc(C)c(-c3ccccc3)c2n1 | 13.3
64 | CCCCNC(=O)/C(C#N)=C/c1ccc(-c2ccc(S(=O)(=O)N3CCOCC3)cc2)o1 | 14.6
65 | COc1ccc(C(=O)c2c3ccccc3[n+]([O-])n2CCC[NH3+])cc1.O=C([O-])C(F)(F)F | -28.9
66 | CC1CCC(NC(=O)c2ccc(NC3=NC4CS(=O)(=O)CC4S3)cc2)CC1 (stereo not drawn) | 1.92

Row | Compound | hERG current change (%, negative = inhibition) at 10uM [%]
67 | O=C(CN1C(=O)c2ccccc2C1=O)NNC1=NS(=O)(=O)c2ccccc21 | 7.58
68 | C=CCn1c(SCC(=O)c2cccs2)nnc1-c1cccc(OC)c1 | -14.9
69 | COc1ccc(Nc2c3c(nc4ccccc24)CCCC3)cc1OC | -73.2
70 | CCOC(=O)N/N=C\c1ccc(OC(=O)c2ccc3c(c2)OCO3)cc1 | -0.337
71 | O=C(Nn1c(O)c(C=C2N=c3ccccc3=N2)sc1=S)c1ccccc1 | 22.3
72 | COc1ccc(C(=O)OCCOc2ccccc2C(C)=O)c(O)c1 | 22.7
73 | COC(=O)c1cc(C)sc1NC(=O)c1ccco1 | 15
74 | Cc1ccc(S(=O)(=O)N(C)Cc2nc(-c3ccc(Br)cc3)no2)cc1 | 4.12
75 | O=C(CCl)Nc1cn(-c2ccccc2)nc1-c1ccc(F)cc1 | -7.91
76 | COc1ccc2oc(C(=O)Nc3nnc(C)s3)c(C)c2c1 | 4.69
77 | COc1ccc(OC)c(S(=O)(=O)N2CCN(c3ccccc3OC)CC2)c1 | -10.7
78 | N#CC1CC(c2ccccc2)Nc2cc(Cl)ccc2N1 (stereo not drawn) | 5.89
79 | NC(=O)CC(NC(=O)c1ccccc1)c1ccc(NCc2ccc(F)cc2)c([N+](=O)[O-])c1 (stereo not drawn) | -48
80 | Cc1ccc(Nc2nc(NCCCN3CCOCC3)nc(N)c2[N+](=O)[O-])cc1C | -5.15
81 | Cc1ccc2c(c1)n([O-])c1c([n+]2=O)CCCC1 | 4.28
82 | Nc1ncnc(NCc2ccccc2)c1[N+](=O)[O-] | 0.645
83 | O=C(Nc1ccc(Cl)cc1Cl)N1CCN(c2ncccn2)CC1 | -21.1
84 | CCCCSCCCNC(=O)C1CCC(CNS(=O)(=O)c2ccc(NC(C)=O)cc2)CC1 (stereo not drawn) | 17.4
85 | CCCCCCOc1ccc(C(CC(=O)NC)C(=O)O)cc1 (stereo not drawn) | 18.7
86 | COC(=O)c1ccc(C2Nc3ccc(/C(C)=N/NC(=O)C(OC)c4ccccc4)cc3C3C=CCC32)cc1 (stereo not drawn) | -76.2
87 | O=C(Nc1ccc(N2CCOCC2)c(Cl)c1)c1c(F)c(F)c(F)c(F)c1F | -39
